Assay results reported in paper PMC10572825 (2023).
Blank lines part the entries; values can stand above or below the binder they belong to.

Molecular target: Tenascin-C (Mus musculus, UniProt Q80YX1, FITC-labelled tenascin-C)
Assay: isothermal fluorescence titration

Kd: 1990 nM
B1: CXCL8 (protein)
chain: not shown

Kd: 1360 nM
B2: CXCL10 (protein)
chain: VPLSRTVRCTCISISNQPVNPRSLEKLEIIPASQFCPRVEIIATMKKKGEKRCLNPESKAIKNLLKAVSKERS
